The other results are listed elsewhere or left out. Bounds are passed on as bounds.

To fix the notation:
B1: PhoQ; a variant is named by its letters at X, in order, P23837 (parent)
chain: MKKLLRLFFPLSLRVRFLLATAAVVLVLSLAYGMVALIGYSVSFDKTTFRLLRGESNLFYTLAKWENNKLHVELPENIDKQSPTMTLIYDENGQLLWAQRDVPWLMKMIQPDWLKSNGFHEIEADVNDTSLLLSGDHSIQQQLQEVREDDDDAEMTHSVAVNVYPATSRMPKLTIVVVDTIPVELKSSYMVWSWFIYVLSANLLLVIPLLWVAAWWSLRPIEALAKEVRELEEHNRELLNPATTRELTSLVRNLNRLLKSERERYDKYRTTLTDLTHSLKTPLXXLQXXLRSLRSEKMSVSDAEPVMLEQISRISQQIGYYLHRASMRGGTLLSRELHPVAPLLDNLTSALNKVYQRKGVNISLDISPEISFVGEQNDFVEVMGNVLDNACKYCLEFVEISARQTDEHLYIVVEDDGPGIPLSKREVIFDRGQRVDTLRPGQGVGLAVAREITEQYEGKIVAGESMLGGARMEVIFGRQHSAPKDE

Variants of B1 are the subject of this test. In words: enrichment ratio after two sorts for PhoP signalling (ratio (wild type AVST 3.29)); higher = more functional. The settings on record: with PhoP (E. coli).
For RIYM, the enrichment ratio was not above 0.25. Under GLKD stands not above 0.25. The result for SSWC reads not above 0.25.

Turning to SYHV, the enrichment ratio was not above 0.25. Take AQMI: the enrichment ratio was not above 0.25. The result for NHQL reads not above 0.25. The result for MSGM reads 6.76; that for FPIL, not above 0.25; that for ANHR, not above 0.25. Regarding IGVG, the enrichment ratio is not above 0.25. Under LGHN stands not above 0.25. The result for WEDR reads not above 0.25; that for NYIL, not above 0.25; that for DCPF, not above 0.25. Under RHKH stands not above 0.25; under PRQT, not above 0.25.

Take STTA: the enrichment ratio was determined as 4.08. The result for IFGT reads not above 0.25. The result for DLRC reads not above 0.25; that for QTGS, 0.628. Under YRGP stands not above 0.25; under FMRA, not above 0.25.

FNFI: the enrichment ratio is not above 0.25. Under PWTV stands not above 0.25; under DFNY, not above 0.25; under SPNM, not above 0.25. The result for PVDQ reads not above 0.25. Consider GEMD, for which the enrichment ratio was not above 0.25. The result for GHHY reads not above 0.25; that for YDIL, not above 0.25; that for NHQY, not above 0.25. Under ACIH stands 1.36.

Turning to YKGY, the enrichment ratio was not above 0.25.

Consider NIGV, for which the enrichment ratio is not above 0.25.

As to NIAR, the enrichment ratio was not above 0.25. Under FRWQ stands not above 0.25; under ENVH, not above 0.25; under WMCS, not above 0.25. On to HHIQ, for which the enrichment ratio was not above 0.25. Under AASM stands 8.59; under HRED, not above 0.25; under WKSC, not above 0.25. Under AHCS stands not above 0.25. Under NKGD stands not above 0.25; under DEIH, not above 0.25. Turning to DHAS, the enrichment ratio was not above 0.25.

As for EAWQ, the enrichment ratio was not above 0.25. With KREV, the enrichment ratio is not above 0.25. AEEN: the enrichment ratio was not above 0.25. Take GHYN: the enrichment ratio was not above 0.25. Under TPAG stands not above 0.25. The result for MHRK reads not above 0.25; that for TEYI, 8.43.

Turning to MITA, the enrichment ratio is not above 0.25. The result for LCTP reads not above 0.25; that for TRWI, not above 0.25; that for NKDD, not above 0.25. In the case of FDFD, the enrichment ratio is not above 0.25. The result for PITY reads not above 0.25; that for NDCG, not above 0.25. With NNDR, the enrichment ratio is not above 0.25. LWMK: the enrichment ratio was not above 0.25.

As for GRYQ, the enrichment ratio is not above 0.25. The result for TAME reads 15.7; that for YDRG, not above 0.25. The result for RTGQ reads not above 0.25; that for WDSG, not above 0.25.

Take VMSE: the enrichment ratio is not above 0.25. The result for KYNM reads not above 0.25; that for RKHN, not above 0.25. In the case of RTRC, the enrichment ratio is not above 0.25.

With HYLF, the enrichment ratio was not above 0.25. On to YQTA, for which the enrichment ratio is not above 0.25. Under YTVY stands not above 0.25; under AQVW, not above 0.25. Regarding WVFI, the enrichment ratio is not above 0.25. The result for DGIT reads not above 0.25; that for NLSF, not above 0.25. The result for NPRA reads not above 0.25; that for YDKS, not above 0.25; that for VGHF, not above 0.25. Under HEAW stands not above 0.25; under IAEF, not above 0.25; under FSVE, not above 0.25. Regarding RKKV, the enrichment ratio was not above 0.25.

MFWK: the enrichment ratio is not above 0.25.

IYTP: the enrichment ratio is not above 0.25. Under KGSP stands not above 0.25. On to MVYL, for which the enrichment ratio came out at 6.13.

In the case of FFFW, the enrichment ratio was not above 0.25. On to FANS, for which the enrichment ratio was not above 0.25. Regarding FAVI, the enrichment ratio was not above 0.25. The result for SDPQ reads not above 0.25; that for GKQD, not above 0.25; that for TFTG, 13.3. The result for YLGW reads 0.309. The result for IYPC reads not above 0.25; that for NVMH, not above 0.25; that for DYIS, not above 0.25. As for SEAG, the enrichment ratio was determined as 12.1. Under IHCH stands not above 0.25. The result for RLPT reads not above 0.25; that for FTSK, not above 0.25. The result for WRFR reads not above 0.25; that for LRGW, not above 0.25; that for HNNW, not above 0.25. On to MQFV, for which the enrichment ratio amounted to 1.09. Under KSTK stands not above 0.25. Consider RMSC, for which the enrichment ratio was not above 0.25.

With IREC, the enrichment ratio is not above 0.25. As for QDLH, the enrichment ratio was not above 0.25. HGWH: the enrichment ratio was not above 0.25. The result for ENYH reads not above 0.25; that for WHMR, not above 0.25; that for LPVQ, not above 0.25.

Regarding TVRP, the enrichment ratio was not above 0.25. Under VTSH stands not above 0.25; under SIDT, not above 0.25; under RDHC, not above 0.25. Under QFHT stands not above 0.25.

Take HNME: the enrichment ratio was not above 0.25.

On to FYEQ, for which the enrichment ratio was not above 0.25. The result for TPCP reads not above 0.25; that for MDHC, not above 0.25.

Regarding TYVV, the enrichment ratio is not above 0.25. Under PYVK stands not above 0.25. The result for LNYN reads not above 0.25; that for WQPY, not above 0.25. The result for GWQF reads not above 0.25; that for PEKS, not above 0.25; that for NYNN, not above 0.25. In the case of GRTG, the enrichment ratio is not above 0.25. Under WPVH stands not above 0.25; under PCIL, not above 0.25; under KQKN, not above 0.25.

As to AYTL, the enrichment ratio is not above 0.25. Under SASV stands 9.73; under PTTA, not above 0.25. The result for PNFI reads not above 0.25. Under LKHV stands not above 0.25; under VWKM, not above 0.25; under LQMD, not above 0.25. For the variant HSKG, the enrichment ratio was not above 0.25. Under ISTT stands not above 0.25. The result for RIIQ reads not above 0.25; that for ECAE, not above 0.25; that for GAHL, not above 0.25. The result for VHIG reads not above 0.25. Consider TCTI, for which the enrichment ratio came to 17.1. The result for QPNF reads not above 0.25; that for WIMF, not above 0.25. Under VWQD stands not above 0.25; under LLMY, not above 0.25; under EMPD, not above 0.25. The result for LCYG reads not above 0.25; that for KNGT, not above 0.25; that for YYRY, not above 0.25. Turning to WPTT, the enrichment ratio is not above 0.25. The result for KNRS reads not above 0.25. NWDT: the enrichment ratio was not above 0.25. On to NAHL, for which the enrichment ratio was not above 0.25. Under DWVK stands not above 0.25; under NLIT, not above 0.25. Under EFVI stands not above 0.25; under QSPI, not above 0.25. Under MDYF stands not above 0.25. Turning to MEKM, the enrichment ratio was not above 0.25. The result for IWRF reads not above 0.25; that for DIYM, not above 0.25; that for IDCW, not above 0.25.

For the variant EMWV, the enrichment ratio was not above 0.25. Under VTNQ stands not above 0.25. Under TYQV stands 0.297; under PQVS, not above 0.25. Under FWMW stands not above 0.25; under TNTN, 2.12; under YNRN, not above 0.25.

Take WRPG: the enrichment ratio was not above 0.25.

INCH: the enrichment ratio is not above 0.25.

Regarding PFFD, the enrichment ratio was not above 0.25. The result for PTTI reads not above 0.25; that for ITAT, not above 0.25. Under GICC stands 5.57; under GALY, 9.22; under FPEK, not above 0.25. For ITGK, the enrichment ratio was not above 0.25.

Consider MYDR, for which the enrichment ratio was not above 0.25. Under IVHK stands not above 0.25; under WPTH, not above 0.25; under FACY, not above 0.25.

Consider PDHW, for which the enrichment ratio was not above 0.25.

With LSSE, the enrichment ratio was not above 0.25. The result for KMES reads not above 0.25. Regarding IKEN, the enrichment ratio was not above 0.25.

Take RDPK: the enrichment ratio is not above 0.25. QILF: the enrichment ratio was not above 0.25. Under ILFK stands not above 0.25. As for SLIY, the enrichment ratio was not above 0.25. The result for TDGC reads 17.1.

With QQNR, the enrichment ratio is not above 0.25. Under MLWD stands not above 0.25.

With ERRW, the enrichment ratio is not above 0.25.

For DQWQ, the enrichment ratio is not above 0.25. Under QGTF stands not above 0.25; under LGNN, not above 0.25; under GLEL, not above 0.25. Under CSFM stands not above 0.25; under HVVG, not above 0.25; under GFIV, not above 0.25. As to MAWC, the enrichment ratio is not above 0.25. The result for NRWN reads not above 0.25; that for NMSM, not above 0.25.

RCCR: the enrichment ratio is not above 0.25. Consider YCPS, for which the enrichment ratio was not above 0.25.

Turning to IMYI, the enrichment ratio is not above 0.25. Under KALS stands not above 0.25; under KPWH, not above 0.25; under LFMP, not above 0.25. Under FPVY stands not above 0.25. The result for SKYG reads not above 0.25. In the case of YINV, the enrichment ratio is not above 0.25.

NSGG: the enrichment ratio is not above 0.25.

For the variant MMMC, the enrichment ratio is not above 0.25.

On to TTMP, for which the enrichment ratio was not above 0.25. The result for ECNS reads not above 0.25.

MPVK: the enrichment ratio is not above 0.25. Consider WHGP, for which the enrichment ratio is not above 0.25. The result for PRSH reads not above 0.25. The result for MLFS reads not above 0.25; that for HVCY, not above 0.25.

For WTWR, the enrichment ratio was not above 0.25. Under DVPY stands not above 0.25; under SRTI, 0.799. The result for NCHN reads not above 0.25; that for PRHW, not above 0.25. The result for TDSH reads 10.4. In the case of RRNE, the enrichment ratio is not above 0.25.

Consider AIVV, for which the enrichment ratio stood at 10. The result for TFYY reads not above 0.25. Under INNC stands not above 0.25; under GRGG, not above 0.25. The result for ASHL reads 3.75; that for KKNH, not above 0.25. LYMM: the enrichment ratio is not above 0.25. As for KGIS, the enrichment ratio is not above 0.25.

Regarding AQSC, the enrichment ratio came out at 8.82. The result for IQRQ reads not above 0.25; that for MSWN, 8.63. Turning to AISW, the enrichment ratio came out at 11.4.

For VSNN, the enrichment ratio is not above 0.25. The result for SGAH reads 8.44; that for LTHF, 2.21; that for AWRS, not above 0.25. Under FIHM stands not above 0.25.

Take AVNF: the enrichment ratio was 3.27. The result for FFRI reads not above 0.25; that for IYIS, not above 0.25; that for TMIE, not above 0.25. The result for WPAY reads not above 0.25. For the variant WNQM, the enrichment ratio was not above 0.25.

YTMS: the enrichment ratio is not above 0.25. Take WMSA: the enrichment ratio was not above 0.25. Under AFQR stands not above 0.25; under MSPG, not above 0.25; under KYEL, not above 0.25. Take AQND: the enrichment ratio is not above 0.25. The result for YKKE reads not above 0.25. Take APPC: the enrichment ratio was not above 0.25. Take VGDR: the enrichment ratio was not above 0.25. For SYCA, the enrichment ratio was not above 0.25.

For QCME, the enrichment ratio was not above 0.25. Under SDVS stands not above 0.25; under SGYA, not above 0.25. The result for INIP reads not above 0.25; that for IEHL, not above 0.25. The result for QMKL reads not above 0.25.

On to KEYW, for which the enrichment ratio was not above 0.25. Under FTYP stands not above 0.25; under GPFD, not above 0.25; under ARRW, not above 0.25. The result for RSVT reads not above 0.25; that for QHNN, not above 0.25; that for GRPF, not above 0.25.

As to TCPI, the enrichment ratio was not above 0.25. With WRRH, the enrichment ratio is not above 0.25. Under DDPR stands not above 0.25; under FESQ, not above 0.25. The result for IRDY reads not above 0.25. The result for QNWK reads not above 0.25; that for KVVA, not above 0.25; that for TLAD, not above 0.25. For ERMG, the enrichment ratio was not above 0.25. PEAS: the enrichment ratio was not above 0.25.

As to KQRY, the enrichment ratio is not above 0.25. The result for IAHG reads not above 0.25; that for WHLY, not above 0.25; that for SHSR, not above 0.25.

As to IMCE, the enrichment ratio is not above 0.25. For the variant GDWE, the enrichment ratio was not above 0.25. Under ARIS stands not above 0.25; under HFYE, not above 0.25; under IYWL, 0.258. The result for DKAA reads not above 0.25; that for LASI, not above 0.25; that for NYLE, not above 0.25.

Regarding SWNI, the enrichment ratio was not above 0.25.

(Values after a collection of fitness landscapes (doi:10.1126/science.1257360).)
